Data as given in the supplement of paper PMC12340641.
In all, about 1,000 compounds were measured (“relative growth recovery (pomalidomide 10 uM = 100%, DMSO = 0%)”: median about -1.6, highest 2% from about 21 on). Some of the results follow.

The compounds below were run on HEK293FT dCK*-IKZF1 (assay: relative growth recovery (pomalidomide 10 uM = 100%, DMSO = 0%); higher = more growth rescue (IKZF1 fusion degradation)). Conditions: compound concentration: 5 uM; AraC concentration: 0.3 uM; overnight pretreatment + 4 days AraC.
Procedure: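 Growth recovery screen of the molecular-glue-like (Specs) library. HEK293FT cells expressing a dCK*-IKZF1 fusion (primary) or dCK* alone (counter) were pretreated overnight with compound at 5 uM, then given 0.3 uM AraC for 4 days. Hoechst nuclei were counted by imaging. Primary: normalised to pomalidomide (100%) and DMSO (0%), mean of 2 replicates. Counter: normalised to no-AraC (100%) and AraC+DMSO (0%), single replicate.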
Compound `CC(C)C(=O)Nc1ccc(C(=O)Nc2ccc(S(=O)(=O)Nc3ncccn3)cc2)cc1` has a relative growth recovery of -5.28%. With `O=C(Cc1cccs1)Nc1ccc(Oc2ccc3c(c2)C(=O)N(c2ccc(O)cc2)C3=O)cc1` the relative growth recovery was -1.26%. With `CCOc1ccc(/C=C/C(=O)Nc2ccc(S(=O)(=O)Nc3cc(C)nc(C)n3)cc2)cc1OC` the relative growth recovery was -5.05%. For `O=C(CSCc1ccccc1)Nc1ccc(S(=O)(=O)Nc2ncccn2)cc1`, the relative growth recovery was -0.225%. `Cc1cnc(Nc2cccc(C3CN(C(=O)C4C5CCCCC54)CCO3)n2)s1` (configuration not stated) gave a relative growth recovery of -2.5%. Work on `Cc1ccc(NC(=O)CSc2nnc3c(n2)[nH]c2ccc(F)cc23)cc1Cl` yielded a relative growth recovery of -7.58%. `COc1ccc2[nH]c3nc(SCC(=O)Nc4cccc(F)c4)nnc3c2c1` gave a relative growth recovery of -7.96%. Compound `COc1ccc(CC(=O)Nc2ccc(S(=O)(=O)Nc3cc(OC)nc(OC)n3)cc2)cc1` has a relative growth recovery of -8.12%. Work on `Cc1ccc(OCC(=O)Nc2ccc(S(=O)(=O)Nc3cc(C)nc(C)n3)cc2)c(C)c1` yielded a relative growth recovery of 3.49%. `COCC(=O)Nc1ccc(S(=O)(=O)Nc2ccccn2)cc1` gave a relative growth recovery of -1.12%. Work on `Cc1ccc(C)c(OCC(=O)Nc2ccc(S(=O)(=O)Nc3ncccn3)cc2)c1C` yielded a relative growth recovery of -7.75%. `Cc1cc(Cl)ccc1OCCCC(=O)Nc1ccc(S(=O)(=O)Nc2ncccn2)cc1` gave a relative growth recovery of -2.29%. In the case of `CCC(=O)Nc1ccc(Oc2ccc3c(c2)C(=O)N(c2ccc(O)cc2)C3=O)cc1`, the relative growth recovery is reported as -2.1%. In the case of `CO[C@H]1CC[C@H](C(=O)N2CCOC(c3cccc(Nc4ncc(C)s4)n3)C2)CC1` (some centres not stated), the relative growth recovery is reported as 6.34%. `Cc1cc(C)nc(NS(=O)(=O)c2ccc(NC(=O)CCN3C(=O)c4ccccc4C3=O)cc2)n1` was tested, and the relative growth recovery was 1.37%. Compound `O=C(NCc1cnc(Nc2cccc(C3CCN(C(=O)C4CCCCC4)CC3)n2)s1)c1cccc(F)c1` has a relative growth recovery of -9.71%. In the case of `Cc1cc(C)nc(NS(=O)(=O)c2ccc(NC(=O)COc3ccc4ccccc4c3)cc2)n1`, the relative growth recovery is reported as -5.12%. For `COc1ccc(NS(=O)(=O)c2ccc(NS(=O)(=O)c3ccccc3[N+](=O)[O-])cc2)nn1`, the relative growth recovery was 0.77%. In the case of `Cc1cnc(Nc2cccc(C3CCN(C(=O)CC4(O)CCCCC4)CC3)n2)s1`, the relative growth recovery is reported as -16%. `CCCc1cnc(Nc2cccc(C3CCN(C(=O)CN(C)C)CC3)n2)s1` gave a relative growth recovery of -16.6%. For `Cc1cc(C)nc(SCC(=O)Nc2ccc(S(=O)(=O)Nc3ncccn3)cc2)n1`, the relative growth recovery was 3.9%. `COCC(=O)N1CCCC1c1cccc(Nc2nc(C)cs2)n1` (configuration not stated) gave a relative growth recovery of -7.27%. In the case of `COc1cc(NS(=O)(=O)c2ccc(NC(=O)c3ccccc3)cc2)nc(OC)n1`, the relative growth recovery is reported as -4.58%. `Cc1ccc(C(C)(C)C(=O)N2CCCC2c2cccc(Nc3ncc(C)s3)n2)cc1` (configuration not stated) showed a relative growth recovery of -16.8%. In the case of `CC(C)C(C(=O)Nc1ccc(S(=O)(=O)Nc2ncccn2)cc1)N1C(=O)c2ccccc2C1=O` (configuration not stated), the relative growth recovery is reported as -6.84%. For `Cc1cnc(Nc2cccc(C3CCN(C(=O)C4(NC(=O)CC(C)(C)C)CCCCC4)CC3)n2)s1`, the relative growth recovery was -16.1%. Work on `Cc1cnc(Nc2cccc(C3CCN(CC(=O)Nc4ccc(F)cc4)CC3)n2)s1` yielded a relative growth recovery of -10.2%. Work on `Cc1ccnc(NS(=O)(=O)c2ccc(NC(=O)CCCc3ccccc3)cc2)n1` yielded a relative growth recovery of -4.65%. For `Cc1ccnc(NS(=O)(=O)c2ccc(NC(=O)c3ccc(-c4ccccc4)cc3)cc2)n1`, the relative growth recovery was 1.61%. `COc1cc(NS(=O)(=O)c2ccc(Nc3nc(-c4sc(C)nc4C)cs3)cc2)nc(OC)n1` showed a relative growth recovery of -1.67%. `CCc1nccn1CC(=O)N1CCOC(c2cccc(Nc3ncc(C)s3)n2)C1` (configuration not stated) showed a relative growth recovery of 0.35%. `Cc1cnc(Nc2cccc(C3CCN(C(=O)C4CC(=O)N(C)C4)CC3)n2)s1` (configuration not stated) was tested, and the relative growth recovery was -12.4%. `Cc1cnc(Nc2cccc(C(C(=O)N(C)C)C3CCN(C(=O)c4cccc(Cl)c4F)CC3)n2)s1` (configuration not stated) was tested, and the relative growth recovery was 1.75%. In the case of `CCOC(=O)c1nc[nH]c1C(=O)N1CCOC(c2cccc(Nc3ncc(C)s3)n2)C1` (configuration not stated), the relative growth recovery is reported as 0.895%. With `O=C(CN1C(=O)c2ccccc2C1=O)Nc1ccc(S(=O)(=O)Nc2ncccn2)cc1` the relative growth recovery was 2.43%. For `COc1ccc(OCCCC(=O)Nc2ccc(S(=O)(=O)Nc3nc(C)cc(C)n3)cc2)cc1`, the relative growth recovery was -2.08%. Work on `Cc1ccnc(NS(=O)(=O)c2ccc(NC(=O)C3CCCCC3)cc2)n1` yielded a relative growth recovery of -2.31%. With `Cc1cnc(Nc2cccc(C3CN(C(=O)Cn4c(CC(C)C)nc5ccccc54)CCO3)n2)s1` (configuration not stated) the relative growth recovery was -13.6%. In the case of `Cc1cccc(C(=O)Nc2ccc(S(=O)(=O)Nc3cc(C)nc(C)n3)cc2)c1`, the relative growth recovery is reported as -0.425%. For `Cc1cc(C)nc(NS(=O)(=O)c2ccc(NC(=O)c3ccccc3C(=O)O)cc2)n1`, the relative growth recovery was 0.245%. `Cc1cc(C)nc(NS(=O)(=O)c2ccc(NC(=O)CCCOc3ccc(Cl)cc3)cc2)n1` was tested, and the relative growth recovery was -0.33%. Compound `O=C(CCCOc1ccccc1)Nc1ccc(S(=O)(=O)Nc2ccccn2)cc1` has a relative growth recovery of -3.42%. `CC(=O)Nc1ccc(Oc2ccc3c(c2)C(=O)N(c2cccc(OC(C)=O)c2)C3=O)cc1` gave a relative growth recovery of -2.87%. Work on `O=C1CCC(N2C(=O)c3cccc(Br)c3C2=O)C(=O)N1` (configuration not stated) yielded a relative growth recovery of 2.69%. In the case of `Cc1cc(C)nc(NS(=O)(=O)c2ccc(NC(=O)CSc3nc(C)cc(C)n3)cc2)n1`, the relative growth recovery is reported as -4.42%. `Cc1cnc(Nc2cccc(CC3CCN(C(=O)c4ccccc4F)CC3)n2)s1` gave a relative growth recovery of -9.56%. `CCCCc1cnc(Nc2cccc(C3CCN(C(=O)C4CCCCC4)CC3)n2)s1` gave a relative growth recovery of -10.6%.
